# In the supplement of paper PMC8728848:
# Some of the results follow.
# Experiments:
# Test in all cases: glycan array binding signal (z-score within array); higher = stronger binding
# Conditions in all cases: glycan notation: IUPAC condensed, linker removed
# Fuc(a1-2)Gal = target: Fuc(a1-2)Gal
# Outline: (§1)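 Glycan array data were curated from 3228 arrays in the Consortium for Functional Glycomics database and kept only where the protein sequence was available. Glycan names were converted to IUPAC-condensed notation, and columns mapping to the same glycan were averaged. The binding signal is a within-array Z-score, averaged across arrays of the same protein sequence at different concentrations or buffers and across linkers. Negative Z-scores can be read as non-binding.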
# Fuc(a1-2)Gal(b1-3)GalNAc = target: Fuc(a1-2)Gal(b1-3)GalNAc
# Outline: as §1
# [1] = target: Fuc(a1-2)Gal(b1-3)GalNAc(a1-3)[Fuc(a1-2)]Gal(b1-4)Glc
# Outline: as §1
# [2] = target: Fuc(a1-2)Gal(b1-3)GalNAc(a1-3)[Fuc(a1-2)]Gal(b1-4)GlcNAc
# Outline: as §1
# [3] = target: Fuc(a1-2)Gal(b1-3)GalNAc(b1-3)Gal
# Outline: as §1
# [4] = target: Fuc(a1-2)Gal(b1-3)GalNAc(b1-3)Gal(a1-4)Gal(b1-4)Glc
# Outline: as §1
# [5] = target: Fuc(a1-2)Gal(b1-3)GalNAc(b1-4)[Neu5Ac(a2-3)]Gal(b1-4)Glc
# Outline: as §1
# Fuc(a1-2)Gal(b1-3)GlcNAc = target: Fuc(a1-2)Gal(b1-3)GlcNAc
# Outline: as §1
# [6] = target: Fuc(a1-2)Gal(b1-3)GlcNAc(b1-2)Man(a1-3)[Fuc(a1-2)Gal(b1-3)GlcNAc(b1-2)Man(a1-6)]Man(b1-4)GlcNAc(b1-4)GlcNAc
# Outline: as §1
# [7] = target: Fuc(a1-2)Gal(b1-3)GlcNAc(b1-2)Man(a1-3)[Fuc(a1-2)Gal(b1-3)GlcNAc(b1-2)Man(a1-6)]Man(b1-4)GlcNAc(b1-4)[Fuc(a1-6)]GlcNAc
# Outline: as §1
# [8] = target: Fuc(a1-2)Gal(b1-3)GlcNAc(b1-3)Gal(b1-4)Glc
# Outline: as §1
# [9] = target: Fuc(a1-2)Gal(b1-3)GlcNAc(b1-3)GalNAc
# Outline: as §1
# [10] = target: Fuc(a1-2)Gal(b1-3)GlcNAc(b1-3)[Fuc(a1-2)Gal(b1-3)GlcNAc(b1-6)]GalNAc
# Outline: as §1
# [11] = target: Fuc(a1-2)Gal(b1-3)GlcNAc(b1-3)[Gal(b1-4)GlcNAc(b1-6)]Gal(b1-4)Glc
# Outline: as §1
# [12] = target: Fuc(a1-2)Gal(b1-3)GlcNAc(b1-3)[Neu5Ac(a2-6)Gal(b1-4)GlcNAc(b1-6)]Gal(b1-4)Glc
# Outline: as §1
# [13] = target: Fuc(a1-2)Gal(b1-3)GlcNAc6S
# Outline: as §1
# [14] = target: Fuc(a1-2)Gal(b1-3)[Fuc(a1-4)]GlcNAc
# Outline: as §1
# [15] = target: Fuc(a1-2)Gal(b1-3)[Fuc(a1-4)]GlcNAc(b1-2)Man(a1-3)[Fuc(a1-2)Gal(b1-3)[Fuc(a1-4)]GlcNAc(b1-2)Man(a1-3)]Man(b1-4)GlcNAc(b1-4)GlcNAc
# Outline: as §1
# [16] = target: Fuc(a1-2)Gal(b1-3)[Fuc(a1-4)]GlcNAc(b1-2)Man(a1-3)[Fuc(a1-2)Gal(b1-3)[Fuc(a1-4)]GlcNAc(b1-2)Man(a1-6)]Man(b1-4)GlcNAc(b1-4)[Fuc(a1-6)]GlcNAc(b1-4)[Fuc(a1-6)]GlcNAc
# Outline: as §1
# [17] = target: Fuc(a1-2)Gal(b1-3)[Fuc(a1-4)]GlcNAc(b1-3)[Fuc(a1-3)[Gal(b1-4)]GlcNAc(b1-6)]Gal(b1-4)Glc
# Outline: as §1
# [18] = target: Fuc(a1-2)Gal(b1-3)[Fuc(a1-4)]GlcNAc(b1-3)[Gal(b1-4)GlcNAc(b1-6)]Gal(b1-4)Glc
# Outline: as §1
# Fuc(a1-2)Gal(b1-4)Glc = target: Fuc(a1-2)Gal(b1-4)Glc
# Outline: as §1
# Fuc(a1-2)Gal(b1-4)Glc6S = target: Fuc(a1-2)Gal(b1-4)Glc6S
# Outline: as §1
# Fuc(a1-2)Gal(b1-4)GlcNAc = target: Fuc(a1-2)Gal(b1-4)GlcNAc
# Outline: as §1
# [19] = target: Fuc(a1-2)Gal(b1-4)GlcNAc(b1-2)Man
# Outline: as §1
# [20] = target: Fuc(a1-2)Gal(b1-4)GlcNAc(b1-2)Man(a1-3)[Fuc(a1-2)Gal(b1-4)GlcNAc(b1-2)Man(a1-6)]Man(b1-4)GlcNAc(b1-4)GlcNAc
# Outline: as §1
# [21] = target: Fuc(a1-2)Gal(b1-4)GlcNAc(b1-2)Man(a1-3)[Fuc(a1-2)Gal(b1-4)GlcNAc(b1-2)Man(a1-6)]Man(b1-4)GlcNAc(b1-4)[Fuc(a1-6)]GlcNAc
# Outline: as §1
# [22] = target: Fuc(a1-2)Gal(b1-4)GlcNAc(b1-2)[Fuc(a1-2)Gal(b1-4)GlcNAc(b1-4)]Man(a1-3)[Fuc(a1-2)Gal(b1-4)GlcNAc(b1-2)Man(a1-6)]Man(b1-4)GlcNAc(b1-4)GlcNAc
# Outline: as §1
# [23] = target: Fuc(a1-2)Gal(b1-4)GlcNAc(b1-3)Gal(b1-4)GlcNAc
# Outline: as §1
# [24] = target: Fuc(a1-2)Gal(b1-4)GlcNAc(b1-3)Gal(b1-4)GlcNAc(b1-2)Man(a1-3)[Fuc(a1-2)Gal(b1-4)GlcNAc(b1-3)Gal(b1-4)GlcNAc(b1-2)Man(a1-6)]Man(b1-4)GlcNAc(b1-4)GlcNAc
# Outline: as §1
binder,measurement,setting,value
PfulAvr4 (Pseudocercospora fuligena) (protein) HHHHHHDYKDDDDKTYVQDKTPAFVCPAADIKTTKCLGPKDCLYPSPKTCNGYIQCSPADDSYLTGIIHEMPCPSGLLWNDNKKWCDWPENTTCGLVKSAGATEVDATKQGPTPGKYHG,glycan array binding signal (z-score),Fuc(a1-2)Gal,-0.028
same,glycan array binding signal (z-score),Fuc(a1-2)Gal(b1-3)GalNAc,-0.107
same,glycan array binding signal (z-score),[1],-0.126
same,glycan array binding signal (z-score),[2],-0.043
same,glycan array binding signal (z-score),[3],-0.098
same,glycan array binding signal (z-score),[4],-0.068
same,glycan array binding signal (z-score),[5],-0.13
same,glycan array binding signal (z-score),Fuc(a1-2)Gal(b1-3)GlcNAc,-0.1
same,glycan array binding signal (z-score),[6],0.455
same,glycan array binding signal (z-score),[7],0.058
same,glycan array binding signal (z-score),[8],-0.135
same,glycan array binding signal (z-score),[9],-0.069
same,glycan array binding signal (z-score),[10],-0.074
same,glycan array binding signal (z-score),[11],-0.126
same,glycan array binding signal (z-score),[12],-0.127
same,glycan array binding signal (z-score),[13],-0.168
same,glycan array binding signal (z-score),[14],-0.041
same,glycan array binding signal (z-score),[15],1.42
same,glycan array binding signal (z-score),[16],0.148
same,glycan array binding signal (z-score),[17],-0.076
same,glycan array binding signal (z-score),[18],-0.112
same,glycan array binding signal (z-score),Fuc(a1-2)Gal(b1-4)Glc,-0.059
same,glycan array binding signal (z-score),Fuc(a1-2)Gal(b1-4)Glc6S,-0.14
same,glycan array binding signal (z-score),Fuc(a1-2)Gal(b1-4)GlcNAc,-0.177
same,glycan array binding signal (z-score),[19],0.198
same,glycan array binding signal (z-score),[20],-0.118
same,glycan array binding signal (z-score),[21],0.297
same,glycan array binding signal (z-score),[22],0.195
same,glycan array binding signal (z-score),[23],-0.157
same,glycan array binding signal (z-score),[24],0.172
